According to PMC6142691, “Cannabidiol enhances morphine antinociception, diminishes NMDA-mediated seizures and reduces stroke damage via the sigma 1 receptor” (Molecular Brain, 2018):

Target: T1, sigma 1 receptor (σ1R), murine full-length (1–223), GST-free (mouse, UniProt O55242 1-223)
T1 construct: sigma 1 receptor, mouse, GenBank AF004927, full-length residues 1-223; amplified by RT-PCR from mouse brain RNA; also called recombinant σ1R; source: E. coli BL21 (KRX), purified (GStrap FF, cleaved on the column with ProTEV protease, ion exchange or electroelution); not shown: GST, N-terminal, cleaved
Assay: pull-down; GST-NR1 C-terminal fragment covalently attached to NHS-activated Sepharose 4FF; σ1R 100 nM (excess 1:3) in 200 μL 50 mM Tris-HCl pH 7.5, 0.2% CHAPS, 2.5 mM CaCl2; 20 min at RT, three washes; then 20 min with σ1R ligands (CBD, progesterone, BD1063, PPCC, PRE084, 4-IBP); bound σ1R detected by SDS-PAGE and immunoblot
Details: both partners purified

- binding result: binds
B1: GST-tagged NMDAR NR1 subunit C-terminal sequence ([…]; last transmembrane residues plus cytosolic C0-C1-C2) (domain or fragment)
chain: not shown
notes: A TEV protease site lies between GST and the NR1 fragment; also called agarose-NR1; NR1 C1; source: E. coli BL21 (KRX), purified (GStrap FF); not shown: GST, N-terminal, kept
